# The other results are listed elsewhere or left out.
# How the values were obtained:
# Test in all cases: glycan array binding signal (z-score within array); higher = stronger binding
# Conditions in all cases: glycan notation: IUPAC condensed, linker removed
# GlcNAc(b1-3)Gal(b1-4)Glc = target: GlcNAc(b1-3)Gal(b1-4)Glc
# Method in brief: (§1)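 Arrays were curated from the Consortium for Functional Glycomics database, 3228 in total, and kept only where the protein sequence was available. Binding is expressed as a within-array Z-score. This score was averaged across arrays of the same protein sequence at different concentrations or buffers and across linkers, and negative values can be read as non-binding.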
# [1] = target: GlcNAc(b1-3)Gal(b1-4)GlcNAc
# Method in brief: as §1
# [2] = target: GlcNAc(b1-3)Gal(b1-4)GlcNAc(b1-2)Man(a1-3)[GlcNAc(b1-3)Gal(b1-4)GlcNAc(b1-2)Man(a1-6)]Man(b1-4)GlcNAc(b1-4)GlcNAc
# Method in brief: as §1
# [3] = target: GlcNAc(b1-3)Gal(b1-4)GlcNAc(b1-2)Man(a1-3)[GlcNAc(b1-3)Gal(b1-4)GlcNAc(b1-2)Man(a1-6)]Man(b1-4)GlcNAc(b1-4)[Fuc(a1-6)]GlcNAc
# Method in brief: as §1
# [4] = target: GlcNAc(b1-3)Gal(b1-4)GlcNAc(b1-2)[GlcNAc(b1-3)Gal(b1-4)GlcNAc(b1-6)]Man(a1-6)[GlcNAc(b1-3)Gal(b1-4)GlcNAc(b1-2)Man(a1-3)]Man(b1-4)GlcNAc(b1-4)GlcNAc
# Method in brief: as §1
# [5] = target: GlcNAc(b1-3)Gal(b1-4)GlcNAc(b1-3)Gal(b1-4)GlcNAc
# Method in brief: as §1
# [6] = target: GlcNAc(b1-3)Gal(b1-4)GlcNAc(b1-3)Gal(b1-4)GlcNAc(b1-2)Man(a1-3)[GlcNAc(b1-3)Gal(b1-4)GlcNAc(b1-3)Gal(b1-4)GlcNAc(b1-2)Man(a1-6)]Man(b1-4)GlcNAc(b1-4)GlcNAc
# Method in brief: as §1
# [7] = target: GlcNAc(b1-3)Gal(b1-4)GlcNAc(b1-3)Gal(b1-4)GlcNAc(b1-2)Man(a1-3)[GlcNAc(b1-3)Gal(b1-4)GlcNAc(b1-3)Gal(b1-4)GlcNAc(b1-2)Man(a1-6)]Man(b1-4)GlcNAc(b1-4)[Fuc(a1-6)]GlcNAc
# Method in brief: as §1
# [8] = target: GlcNAc(b1-3)Gal(b1-4)GlcNAc(b1-3)Gal(b1-4)GlcNAc(b1-2)[GlcNAc(b1-3)Gal(b1-4)GlcNAc(b1-3)Gal(b1-4)GlcNAc(b1-6)]Man(a1-6)[GlcNAc(b1-3)Gal(b1-4)GlcNAc(b1-3)Gal(b1-4)GlcNAc(b1-2)Man(a1-3)]Man(b1-4)GlcNAc(b1-4)[Fuc(a1-6)]GlcNAc
# Method in brief: as §1
# [9] = target: GlcNAc(b1-3)Gal(b1-4)GlcNAc(b1-3)Gal(b1-4)GlcNAc(b1-3)Gal(b1-4)GlcNAc(b1-2)Man(a1-3)[GlcNAc(b1-3)Gal(b1-4)GlcNAc(b1-3)Gal(b1-4)GlcNAc(b1-3)Gal(b1-4)GlcNAc(b1-2)Man(a1-6)]Man(b1-4)GlcNAc(b1-4)GlcNAc
# Method in brief: as §1
# [10] = target: GlcNAc(b1-3)Gal(b1-4)GlcNAc(b1-3)Gal(b1-4)GlcNAc(b1-3)Gal(b1-4)GlcNAc(b1-2)Man(a1-3)[GlcNAc(b1-3)Gal(b1-4)GlcNAc(b1-3)Gal(b1-4)GlcNAc(b1-3)Gal(b1-4)GlcNAc(b1-2)Man(a1-6)]Man(b1-4)GlcNAc(b1-4)[Fuc(a1-6)]GlcNAc
# Method in brief: as §1
# [11] = target: GlcNAc(b1-3)Gal(b1-4)GlcNAc(b1-3)Gal(b1-4)GlcNAc(b1-3)Gal(b1-4)GlcNAc(b1-2)[GlcNAc(b1-3)Gal(b1-4)GlcNAc(b1-3)Gal(b1-4)GlcNAc(b1-3)Gal(b1-4)GlcNAc(b1-6)]Man(a1-6)[GlcNAc(b1-3)Gal(b1-4)GlcNAc(b1-3)Gal(b1-4)GlcNAc(b1-3)Gal(b1-4)GlcNAc(b1-2)Man(a1-3)]Man(b1-4)GlcNAc(b1-4)[Fuc(a1-6)]GlcNAc
# Method in brief: as §1
# [12] = target: GlcNAc(b1-3)Gal(b1-4)GlcNAc(b1-3)Gal(b1-4)GlcNAc(b1-3)Gal(b1-4)GlcNAc(b1-3)Gal(b1-4)GlcNAc(b1-2)Man(a1-3)[GlcNAc(b1-3)Gal(b1-4)GlcNAc(b1-3)Gal(b1-4)GlcNAc(b1-3)Gal(b1-4)GlcNAc(b1-3)Gal(b1-4)GlcNAc(b1-2)Man(a1-6)]Man(b1-4)GlcNAc(b1-4)GlcNAc
# Method in brief: as §1
# [13] = target: GlcNAc(b1-3)Gal(b1-4)GlcNAc(b1-3)Gal(b1-4)GlcNAc(b1-3)Gal(b1-4)GlcNAc(b1-3)Gal(b1-4)GlcNAc(b1-2)Man(a1-3)[GlcNAc(b1-3)Gal(b1-4)GlcNAc(b1-3)Gal(b1-4)GlcNAc(b1-3)Gal(b1-4)GlcNAc(b1-3)Gal(b1-4)GlcNAc(b1-2)Man(a1-6)]Man(b1-4)GlcNAc(b1-4)[Fuc(a1-6)]GlcNAc
# Method in brief: as §1
# [14] = target: GlcNAc(b1-3)Gal(b1-4)GlcNAc(b1-3)Gal(b1-4)GlcNAc(b1-3)Gal(b1-4)GlcNAc(b1-3)Gal(b1-4)GlcNAc(b1-2)[GlcNAc(b1-3)Gal(b1-4)GlcNAc(b1-3)Gal(b1-4)GlcNAc(b1-3)Gal(b1-4)GlcNAc(b1-3)Gal(b1-4)GlcNAc(b1-6)]Man(a1-6)[GlcNAc(b1-3)Gal(b1-4)GlcNAc(b1-3)Gal(b1-4)GlcNAc(b1-3)Gal(b1-4)GlcNAc(b1-3)Gal(b1-4)GlcNAc(b1-2)Man(a1-3)]Man(b1-4)GlcNAc(b1-4)[Fuc(a1-6)]GlcNAc
# Method in brief: as §1
# [15] = target: GlcNAc(b1-3)Gal(b1-4)GlcNAc(b1-3)Gal(b1-4)GlcNAc(b1-3)GalNAc
# Method in brief: as §1
# [16] = target: GlcNAc(b1-3)Gal(b1-4)GlcNAc(b1-3)GalNAc
# Method in brief: as §1
# [17] = target: GlcNAc(b1-3)Gal(b1-4)GlcNAc(b1-3)[GlcNAc(b1-3)Gal(b1-4)GlcNAc(b1-3)]GalNAc
# Method in brief: as §1
# [18] = target: GlcNAc(b1-3)Gal(b1-4)GlcNAc(b1-6)[Gal(b1-3)]GalNAc
# Method in brief: as §1
# [19] = target: GlcNAc(b1-3)Gal(b1-4)GlcNAc(b1-6)[GlcNAc(b1-3)Gal(b1-3)]GalNAc
# Method in brief: as §1
# [20] = target: GlcNAc(b1-3)Gal(b1-4)GlcNAc(b1-6)[GlcNAc(b1-3)]Gal(b1-4)GlcNAc
# Method in brief: as §1
# GlcNAc(b1-3)GalNAc = target: GlcNAc(b1-3)GalNAc
# Method in brief: as §1
# GlcNAc(b1-3)Man = target: GlcNAc(b1-3)Man
# Method in brief: as §1
# [21] = target: GlcNAc(b1-3)[GlcNAc(b1-4)][GlcNAc(b1-6)]GlcNAc
# Method in brief: as §1
# [22] = target: GlcNAc(b1-3)[GlcNAc(b1-6)]Gal(b1-4)GlcNAc
# Method in brief: as §1
# [23] = target: GlcNAc(b1-3)[GlcNAc(b1-6)]GalNAc
# Method in brief: as §1
# [24] = target: GlcNAc(b1-4)Gal(b1-4)GlcNAc
# Method in brief: as §1
# GlcNAc(b1-4)GlcNAc = target: GlcNAc(b1-4)GlcNAc
# Method in brief: as §1
# [25] = target: GlcNAc(b1-4)GlcNAc(b1-4)GlcNAc
# Method in brief: as §1
# [26] = target: GlcNAc(b1-4)GlcNAc(b1-4)GlcNAc(b1-4)GlcNAc(b1-4)GlcNAc
# Method in brief: as §1
# [27] = target: GlcNAc(b1-4)GlcNAc(b1-4)GlcNAc(b1-4)GlcNAc(b1-4)GlcNAc(b1-4)GlcNAc
# Method in brief: as §1
# [28] = target: GlcNAc(b1-4)[GlcNAc(b1-6)]GalNAc
# Method in brief: as §1
# [29] = target: GlcNAc(b1-6)Gal(b1-4)GlcNAc
# Method in brief: as §1
# GlcNAc(b1-6)GalNAc = target: GlcNAc(b1-6)GalNAc
# Method in brief: as §1
# [30] = target: GlcNAc6S(b1-3)Gal(b1-4)GlcNAc
# Method in brief: as §1
# Kdn(a2-3)Gal(b1-3)GalNAc = target: Kdn(a2-3)Gal(b1-3)GalNAc
# Method in brief: as §1
# Kdn(a2-3)Gal(b1-3)GlcNAc = target: Kdn(a2-3)Gal(b1-3)GlcNAc
# Method in brief: as §1
# Kdn(a2-3)Gal(b1-4)Glc = target: Kdn(a2-3)Gal(b1-4)Glc
# Method in brief: as §1
# Kdn(a2-3)Gal(b1-4)GlcNAc = target: Kdn(a2-3)Gal(b1-4)GlcNAc
# Method in brief: as §1
# [31] = target: Kdn(a2-3)Gal(b1-4)[Fuc(a1-3)]GlcNAc
# Method in brief: as §1
# Kdn(a2-6)Gal(b1-4)GlcNAc = target: Kdn(a2-6)Gal(b1-4)GlcNAc
# Method in brief: as §1
# [32] = target: Man(a1-2)Man(a1-2)Man(a1-3)Man
# Method in brief: as §1
# [33] = target: Man(a1-2)Man(a1-2)Man(a1-6)[Man(a1-3)]Man
# Method in brief: as §1
# Man(a1-2)Man(a1-3)Man = target: Man(a1-2)Man(a1-3)Man
# Method in brief: as §1
# [34] = target: Man(a1-2)Man(a1-3)[Man(a1-2)Man(a1-6)]Man
# Method in brief: as §1
binder,measurement,setting,value
Als3-2 (Candida albicans) (protein) KTITGVFNSFNSLTWSNAATYNYKGPGTPTWNAVLGWSLDGTSASPGDTFTLNMPCVFKFTTSQTSVDLTAHGVKYATCQFQAGEEFMTFSTLTCTVSNTLTPSIKALGTVTLPLAFNVGGTGSSVDLEDSKCFTAGTNTVTFNDGGKKISINVDFERSNVDPKGYLTD,glycan array binding signal (z-score),GlcNAc(b1-3)Gal(b1-4)Glc,-0.379
same,glycan array binding signal (z-score),[1],-0.583
same,glycan array binding signal (z-score),[2],-0.5
same,glycan array binding signal (z-score),[3],-0.562
same,glycan array binding signal (z-score),[4],-0.296
same,glycan array binding signal (z-score),[5],-0.478
same,glycan array binding signal (z-score),[6],1.02
same,glycan array binding signal (z-score),[7],1.17
same,glycan array binding signal (z-score),[8],0.939
same,glycan array binding signal (z-score),[9],-0.47
same,glycan array binding signal (z-score),[10],-0.435
same,glycan array binding signal (z-score),[11],0.484
same,glycan array binding signal (z-score),[12],-0.006
same,glycan array binding signal (z-score),[13],3.13
same,glycan array binding signal (z-score),[14],-0.036
same,glycan array binding signal (z-score),[15],-0.04
same,glycan array binding signal (z-score),[16],-0.214
same,glycan array binding signal (z-score),[17],1.28
same,glycan array binding signal (z-score),[18],0.503
same,glycan array binding signal (z-score),[19],-0.331
same,glycan array binding signal (z-score),[20],-0.076
same,glycan array binding signal (z-score),GlcNAc(b1-3)GalNAc,-0.425
same,glycan array binding signal (z-score),GlcNAc(b1-3)Man,-0.637
same,glycan array binding signal (z-score),[21],-0.516
same,glycan array binding signal (z-score),[22],-0.666
same,glycan array binding signal (z-score),[23],0.124
same,glycan array binding signal (z-score),[24],0.049
same,glycan array binding signal (z-score),GlcNAc(b1-4)GlcNAc,0.531
same,glycan array binding signal (z-score),[25],-0.338
same,glycan array binding signal (z-score),[26],-0.045
same,glycan array binding signal (z-score),[27],0.677
same,glycan array binding signal (z-score),[28],-0.507
same,glycan array binding signal (z-score),[29],1.94
same,glycan array binding signal (z-score),GlcNAc(b1-6)GalNAc,0.471
same,glycan array binding signal (z-score),[30],0.648
same,glycan array binding signal (z-score),Kdn(a2-3)Gal(b1-3)GalNAc,-0.017
same,glycan array binding signal (z-score),Kdn(a2-3)Gal(b1-3)GlcNAc,-0.695
same,glycan array binding signal (z-score),Kdn(a2-3)Gal(b1-4)Glc,-0.075
same,glycan array binding signal (z-score),Kdn(a2-3)Gal(b1-4)GlcNAc,-0.528
same,glycan array binding signal (z-score),[31],0.485
same,glycan array binding signal (z-score),Kdn(a2-6)Gal(b1-4)GlcNAc,-0.54
same,glycan array binding signal (z-score),[32],1.73
same,glycan array binding signal (z-score),[33],-0.461
same,glycan array binding signal (z-score),Man(a1-2)Man(a1-3)Man,-0.511
same,glycan array binding signal (z-score),[34],-0.687
